# IC50 is the fitted dose that halves viability relative to control wells, and lower means more sensitive; a limit (>, <) means that the fit lies beyond the doses tested. For AUC the same curve is integrated over the 256-fold range of doses and scaled to a fraction; it is 1 without any effect and falls as sensitivity rises. For part of these data: An inferred top dose is not printed in the source and was worked back from the curve model.
# Key:
# Assay in all cases: Viability of human cancer cell lines after 72 h of drug (GDSC screen)
# Trametinib = compound: CC(=O)Nc1cccc(-n2c(=O)n(C3CC3)c(=O)c3c(Nc4ccc(I)cc4F)n(C)c(=O)c(C)c32)c1 [Trametinib]; conditions: top dose 1 µM
# Protocol: (§1)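 Human cancer cell lines in 384-well plates, medium with 10% serum, drug for 72 h over a 256-fold dose range (nine 2-fold or five 4-fold steps up to the top dose). Adherent lines were fixed and stained with the nucleic acid dye Syto60, suspension lines read with resazurin; signal relative to control wells, capped at 0 and 100%. One two-parameter sigmoid per drug and line, fitted in a mixed model over all curves with the slope shared within a line.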
# I-BET-762 = compound: CCNC(=O)C[C@@H]1N=C(c2ccc(Cl)cc2)c2cc(OC)ccc2-n2c(C)nnc21 [I-BET-762]; conditions: top dose 20 µM; top dose inferred
# Protocol: as §1
# HG-6-64-1 = compound: CCN1CCN(Cc2ccc(NC(=O)c3ccc(C)c(/C=C/c4cnc5[nH]ccc5c4OC)c3)cc2C(F)(F)F)CC1 [HG-6-64-1]; conditions: top dose 5.12 µM; top dose inferred
# Protocol: as §1
# AV-951 = compound: COc1cc2nccc(Oc3ccc(NC(=O)Nc4cc(C)on4)c(Cl)c3)c2cc1OC [AV-951]; conditions: top dose 0.128 µM; top dose inferred
# Protocol: as §1
# PF-4708671 = compound: CCc1cncnc1N1CCN(Cc2nc3ccc(C(F)(F)F)cc3[nH]2)CC1 [PF-4708671]; conditions: top dose 10 µM; top dose inferred
# Protocol: as §1
# KIN001-244 = compound: O=C(NC(COc1ccc2[nH]c(=O)[nH]c2c1)c1ccccc1)c1cccn(Cc2ccc(F)c(F)c2)c1=O [KIN001-244]; conditions: top dose 20 µM; top dose inferred
# Protocol: as §1
# MS-275 = compound: Nc1ccccc1NC(=O)c1ccc(CNC(=O)OCc2cccnc2)cc1 [MS-275]; conditions: top dose 5 µM; top dose inferred
# Protocol: as §1
Cell Line,AUC (Trametinib),IC50 (Trametinib) [nM],AUC (I-BET-762),IC50 (I-BET-762) [nM],AUC (HG-6-64-1),IC50 (HG-6-64-1) [nM],AUC (AV-951),IC50 (AV-951) [nM],AUC (PF-4708671),IC50 (PF-4708671) [nM],AUC (KIN001-244),IC50 (KIN001-244) [nM],AUC (MS-275),IC50 (MS-275) [nM]
"KYM-1 (rhabdomyosarcoma, adherent)",0.935,> 1000,0.958,> 20000,0.959,> 5120,0.991,> 128,0.917,> 10000,0.922,> 20000,0.981,> 5000
"L-428 (Hodgkin lymphoma, suspension)",0.992,> 1000,0.99,> 20000,0.876,4060,0.987,> 128,0.953,> 10000,0.949,> 20000,0.832,2670
"L-540 (Hodgkin lymphoma, suspension)",0.986,> 1000,0.989,> 20000,0.763,1650,0.978,> 128,0.99,> 10000,0.891,18900,0.753,1510
"L-1236 (Hodgkin lymphoma, suspension)",0.991,> 1000,0.814,8830,0.97,> 5120,0.992,> 128,0.933,> 10000,0.924,> 20000,0.599,558
"LAMA-84 (chronic myeloid leukaemia, suspension)",0.934,> 1000,0.546,1670,0.147,24.9,0.799,62.5,0.962,> 10000,0.703,4720,0.624,689
"LAN-6 (neuroblastoma, adherent)",0.644,170,0.935,> 20000,0.972,> 5120,0.963,> 128,0.955,> 10000,0.976,> 20000,0.777,2390
"LB771-HNC (head and neck, adherent)",0.842,974,0.778,10300,0.8,3220,0.981,> 128,0.966,> 10000,0.851,> 20000,0.884,> 5000
"LB831-BLC (bladder, adherent)",0.937,> 1000,0.972,> 20000,0.618,680,0.981,> 128,0.949,> 10000,0.889,> 20000,0.779,2070
"LB996-RCC (kidney, adherent)",0.736,335,0.977,> 20000,0.614,693,0.982,> 128,0.868,> 10000,0.922,> 20000,0.69,1170
"LB1047-RCC (kidney, adherent)",0.485,56.6,0.98,> 20000,0.678,1080,0.977,> 128,0.939,> 10000,0.865,> 20000,0.698,1220
"LB2241-RCC (kidney, adherent)",0.372,26.6,0.971,> 20000,0.749,1830,0.983,> 128,0.838,7970,0.973,> 20000,0.7,1230
"LB2518-MEL (melanoma, adherent)",0.094,< 3.91,0.982,> 20000,0.851,4260,0.987,> 128,0.987,> 10000,0.917,> 20000,0.674,981
"LC4-1 (lymphoblastic leukaemia, suspension)",0.929,> 1000,0.596,2370,0.826,3540,0.966,> 128,0.964,> 10000,0.647,3340,0.673,1000
"LC-2-ad (lung adenocarcinoma, adherent)",0.755,347,0.862,17800,0.247,58.6,0.954,> 128,0.974,> 10000,0.821,12000,0.591,559
"LNCaP-Clone-FGC (prostate, adherent)",0.981,> 1000,0.611,2640,0.968,> 5120,0.973,> 128,0.955,> 10000,0.916,> 20000,0.904,> 5000
"LOXIMVI (melanoma, semi-adherent)",0.076,< 3.91,0.965,> 20000,0.707,1140,0.988,> 128,0.99,> 10000,0.955,> 20000,0.791,1980
"LP-1 (myeloma, suspension)",0.992,> 1000,0.546,1630,0.964,> 5120,0.993,> 128,0.899,8810,0.845,10900,0.755,1440
"LS-123 (large intestine, adherent)",0.64,174,0.981,> 20000,0.886,> 5120,0.982,> 128,0.94,> 10000,0.931,> 20000,0.833,4840

# Source: the supplement of paper PMC4967469
